Drawing on paper PMC10668032, this text covers binding signal for 110 sequences.

The list shows a part of the results. At the low end of the ranking, values are background and their order means little.

The target in the test is SIX1 homeodomain (reference allele) (UniProt Q15475). Kind of test: universal protein binding microarray. To be noted: Universal all-10-mer PBM (8x60K, AMADID 030236), 300 nM GST-tagged protein, Alexa Fluor 488 anti-GST; buffer, salt, pH and temperature not stated; high values mean tight binding; most listed sequences are background and not binding sites; double strand, one strand shown.
As for CGCCGCGA, the binding signal was found to be 0.0141 E-score. The figure for AATAGCCA is -0.0045 E-score; for ACCTTAGA it is -0.0313 E-score. For ACATCCTC the value was 0.09 E-score.

Take CCATATCA: the binding signal came out at 0.472 E-score.

Take CACCGTTA: the binding signal is -0.0498 E-score. As to CACCCGGC, the binding signal was found to be 0.192 E-score.

Consider CTAGGGTC, for which the binding signal was -0.208 E-score. The figure for GGCGAGCA is -0.137 E-score.

For GTGTAACA, the binding signal was determined as 0.0913 E-score. The figure for CTATATAG is 0.182 E-score; for GGGCGGGA it is 0.0521 E-score; for ACCTTGCC it is -0.306 E-score. CAAAACGG: the binding signal was -0.105 E-score. For TGACTTAA the value was -0.2 E-score; for CCGCGCTC, -0.0987 E-score; for CACAGGGC, -0.322 E-score. The figure for ACTGAACG is -0.301 E-score; for CTGAACGA it is -0.183 E-score; for ACTTTCCC it is -0.208 E-score. Turning to CGGGGTCC, the binding signal is -0.0447 E-score. Take CCCCAGGA: the binding signal came out at 0.153 E-score. For TATGCTCA the value was -0.00662 E-score. As for ACAGGCGT, the binding signal is -0.135 E-score. ACTGCGTA: the binding signal is -0.0835 E-score.

In the case of CCGAAGAG, the binding signal was -0.0447 E-score.

For the sequence CCATGTAC, the binding signal is 0.0222 E-score. Turning to ATACGGTC, the binding signal worked out at 0.256 E-score. For GCAGAAAC the value was -0.254 E-score. The figure for TGAGACAA is -0.00214 E-score; for CCCGACGA it is 0.0154 E-score. For AGCTATAA the value was -0.00342 E-score. Regarding ATAAACAC, the binding signal was -0.00724 E-score. Consider AACTAAAA, for which the binding signal is -0.132 E-score. For ACATTCGA the value was -0.0494 E-score; for CCTGCACC, -0.147 E-score. For GTACACCA the value was 0.233 E-score; for CATTGAGG, -0.117 E-score; for AGCAGCAA, -0.235 E-score. The figure for AGGAGTAT is 0.309 E-score; for ATAAATAA it is -0.0823 E-score; for AAGAACAA it is -0.145 E-score. On to AACCGGCT, for which the binding signal amounted to 0.0213 E-score. For ATTCTTTG the value was -0.0667 E-score; for TCAGGCAA, -0.224 E-score; for AAAGTCCG, -0.155 E-score. For CGACCTCC the value was -0.0335 E-score. For the sequence TAACACAA, the binding signal is 0.0612 E-score.

For CAAATCCA, the binding signal was -0.00587 E-score. CTCGGAAC: the binding signal was -0.0992 E-score. For the sequence ACCTCCGA, the binding signal stood at 0.027 E-score.

TAGCAACA: the binding signal was -0.137 E-score. Regarding AAGTGGGA, the binding signal is -0.0536 E-score. For CCGAACCA the value was -0.0252 E-score; for CAGCCTAC, -0.0926 E-score; for CTAATGCC, -0.216 E-score. The figure for ACTGTTAT is -0.128 E-score; for ACGAATCC it is 0.153 E-score; for TTGCCAAA it is -0.221 E-score.

GACTCGCA: the binding signal is -0.113 E-score.

As to AATGGGAA, the binding signal was -0.252 E-score.

Consider AGTAGCAC, for which the binding signal was -0.157 E-score. The figure for CGCCCCCG is 0.0534 E-score.

Consider CGTACCAC, for which the binding signal was -0.0505 E-score.

Consider CTCTTTAC, for which the binding signal is -0.109 E-score. The figure for GGGCAGTA is 0.0685 E-score; for ATGCGTTA it is 0.139 E-score; for AATCATGA it is -0.0171 E-score.

Consider CTCCGTCC, for which the binding signal is -0.109 E-score. The figure for CATAACAG is -0.117 E-score. The figure for AACGTGCT is -0.0718 E-score; for GAATCCTA it is 0.057 E-score. The figure for ATAGCCTA is 0.157 E-score.

As to AGGCTGGA, the binding signal was -0.114 E-score. For CTACTATA the value was 0.153 E-score.

In the case of AGCGCCGC, the binding signal is -0.177 E-score.

As for CTTCGATA, the binding signal was determined as 0.342 E-score. Regarding CCCCCTGA, the binding signal worked out at 0.0527 E-score. For CTCGCACA the value was -0.15 E-score; for ATGAACAC, 0.0146 E-score; for CGGACAGC, -0.269 E-score.

Take ACTCTCAC: the binding signal is 0.0478 E-score. Turning to TCTAACAA, the binding signal is -0.104 E-score. The figure for ACTCACAG is -0.198 E-score; for CTATCTCC it is 0.217 E-score; for AAATACGG it is 0.19 E-score.

For the sequence CTGGTTAA, the binding signal was -0.178 E-score. Consider AACACACC, for which the binding signal stood at 0.059 E-score.

As to ATCTCAAC, the binding signal was 0.233 E-score. For AATTGGTC the value was -0.27 E-score; for AGTACCCA, -0.0339 E-score. The figure for AACCTGGT is 0.0932 E-score; for CCTACGCA it is -0.0678 E-score; for CTAGTAAC it is -0.198 E-score. For GATGGTAC the value was -0.0915 E-score. Regarding ATCCCCTG, the binding signal came out at 0.334 E-score. For GTTGGATA the value was 0.295 E-score. The figure for CCCGTACC is 0.119 E-score. The figure for AATAGGTG is 0.035 E-score; for TAGCCGGA it is 0.116 E-score; for GAGACCCC it is 0.235 E-score.

In the case of CAGAATGC, the binding signal was -0.237 E-score. For ATACTGTA the value was 0.368 E-score.

For the sequence GTCTTTCA, the binding signal is -0.141 E-score. As for GCCGAGAC, the binding signal was -0.0478 E-score. The figure for AACACAAC is -0.0532 E-score; for GCTTTGCC it is -0.239 E-score; for CACACCAG it is 0.156 E-score. The figure for ATTGGACA is 0.0441 E-score.

In the case of AAGGATGA, the binding signal stood at 0.0643 E-score.
